# Test results published in paper PMC4336329 (PLoS ONE, 2015).
# The campaign covered roughly 310,000 compounds. About 2,200 (0.71%) showed an effect of 50% or more. The effect is printed as a negative number. The list shows a part of the results.
# Target: human ether-à-go-go-related gene (hERG) potassium channel (human, UniProt Q12809)
# Assay: primary screen, population patch clamp on CHO cells stably expressing hERG
# human ether-à-go-go-related gene (hERG) potassium channel, sequence (Q12809 whole entry, looked up): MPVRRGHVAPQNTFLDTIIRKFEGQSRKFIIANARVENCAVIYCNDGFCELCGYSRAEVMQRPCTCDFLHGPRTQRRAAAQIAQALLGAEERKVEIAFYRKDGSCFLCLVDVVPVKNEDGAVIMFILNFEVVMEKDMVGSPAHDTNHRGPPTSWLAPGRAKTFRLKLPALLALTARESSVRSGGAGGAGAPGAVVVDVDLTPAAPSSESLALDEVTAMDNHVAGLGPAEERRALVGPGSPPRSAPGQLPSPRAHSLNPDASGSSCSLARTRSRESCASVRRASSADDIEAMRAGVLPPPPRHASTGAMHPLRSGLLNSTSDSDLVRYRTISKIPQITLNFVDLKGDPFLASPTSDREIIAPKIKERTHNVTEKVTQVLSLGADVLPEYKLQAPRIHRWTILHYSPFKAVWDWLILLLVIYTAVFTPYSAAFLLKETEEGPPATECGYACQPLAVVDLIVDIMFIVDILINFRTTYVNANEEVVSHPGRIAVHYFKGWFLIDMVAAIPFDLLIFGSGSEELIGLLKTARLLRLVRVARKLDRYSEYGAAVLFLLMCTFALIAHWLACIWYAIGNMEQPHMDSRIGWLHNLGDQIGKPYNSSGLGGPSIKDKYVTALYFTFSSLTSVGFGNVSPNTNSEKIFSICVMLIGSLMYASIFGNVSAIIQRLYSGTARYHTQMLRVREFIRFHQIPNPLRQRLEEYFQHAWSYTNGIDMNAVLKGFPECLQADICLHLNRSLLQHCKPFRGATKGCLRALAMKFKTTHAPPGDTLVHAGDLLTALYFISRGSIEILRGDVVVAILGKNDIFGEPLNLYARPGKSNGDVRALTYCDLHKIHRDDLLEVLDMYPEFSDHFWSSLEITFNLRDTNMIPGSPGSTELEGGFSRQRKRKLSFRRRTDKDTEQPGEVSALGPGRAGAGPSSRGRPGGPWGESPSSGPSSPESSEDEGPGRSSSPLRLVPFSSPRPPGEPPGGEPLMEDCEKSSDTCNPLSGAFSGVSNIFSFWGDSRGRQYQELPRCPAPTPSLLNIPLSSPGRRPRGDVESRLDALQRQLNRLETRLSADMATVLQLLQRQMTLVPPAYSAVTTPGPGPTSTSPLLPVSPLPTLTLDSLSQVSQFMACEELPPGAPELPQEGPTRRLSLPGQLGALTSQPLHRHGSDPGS
row,Structure (SMILES),"hERG current change (%, negative = inhibition) at 1uM [%]"
1,CCN1/C(=C2\C(=O)N(C)C(=S)N2C)C=Cc2cc(OC)ccc21,6.61
2,COC(=O)c1ccccc1NCc1cc(=O)oc2cc(O)c(O)cc12,9.19
3,CCN(CC)c1ccc(C2Nc3cccc4cccc(c34)N2)cc1,15.6
4,Cc1ccc(-c2cc(=O)c3cc(F)ccc3[nH]2)cc1,6.15
5,O=C(/C=C/Nc1cccc([N+](=O)[O-])c1)c1ccco1,14.5
6,COc1ccc(C(=O)NC(=S)Nc2ccc(NC(=O)c3ccco3)cc2)cc1[N+](=O)[O-],11.3
7,O=C1NCCN(Cc2ccoc2)C1CC(=O)N(Cc1ccccc1)CC1CCC1 (stereo not drawn),17.9
8,CN1CCN(C(=O)CCN2C(=O)/C(=C/c3ccc(F)cc3)SC2=S)CC1,8.5
9,O=C(c1nc2ccccn2c1CNCCOc1cccnc1)N1CCOCC1,10.6
10,COc1ccc(OCC(=O)Nc2cccc(S(=O)(=O)N(C)c3ccccc3)c2)c([N+](=O)[O-])c1,-1.67
11,COC(=O)[C@@]12CCCN1[C@H](c1ccc(-c3ccc(Cl)c(Cl)c3)cc1)[C@H]1C(=O)N(C)C(=O)[C@H]12.O=C(O)C(F)(F)F,4.46
12,Nc1nnc(-c2cccc(F)c2)s1,12.4
13,CN(C)CCCN1C(=O)c2cccc3c(Br)ccc(c23)C1=O,-9.66
14,O=C(CSc1nc2ncc(Cl)cc2[nH]1)N(Cc1ccccc1)C1CCS(=O)(=O)C1 (stereo not drawn),7.76
15,O=C(c1ccccc1Oc1ccccc1)N1CCN(c2ccc(F)cc2)CC1,2
16,O=C(NCCCNC(=O)c1ccccn1)c1ccc(F)cc1,10.8
17,O=C(CSc1cn(CCNC(=O)c2ccccc2F)c2ccccc12)NCC1CCCO1 (stereo not drawn),6.14
18,CCC(C)(C)NC(=O)Cc1ccccc1OC,19.1
19,COc1ccc2c(c1)CCc1cnc(N)nc1-2,-0.803
20,c1ccc(-c2nc3c4ccccc4ccn3c2CN2CCCCC2)cc1,-1.95
21,Cc1cc(C)cc(N(CCC#N)C(=O)COC(=O)c2nc3nc(C)cc(C)n3n2)c1,-0.842
22,C=CCC(=O)NC1CCCc2c1cnn2-c1cc(F)cc(F)c1 (stereo not drawn),-43.3
23,CN(CCc1ccccn1)C(=O)CCC1CCCN(C(=O)c2ccc3c(c2)OCCO3)C1 (stereo not drawn),3.84
24,Cc1c(C(=O)OC2CCCC2C)[nH]c2c1C(=O)CCC2 (stereo not drawn),8.73
